# From PMC4336329 (PLoS ONE, 2015)
# Hit rate of the full screen: of about 310,000 compounds, about 2,200 (0.71%) showed an effect of 50% or more. Effects have a minus sign here. Some of the results follow.
# Molecular target: human ether-à-go-go-related gene (hERG) potassium channel (human, UniProt Q12809)
# Experiment: primary screen, population patch clamp on CHO cells stably expressing hERG
# human ether-à-go-go-related gene (hERG) potassium channel, sequence (Q12809 whole entry, looked up): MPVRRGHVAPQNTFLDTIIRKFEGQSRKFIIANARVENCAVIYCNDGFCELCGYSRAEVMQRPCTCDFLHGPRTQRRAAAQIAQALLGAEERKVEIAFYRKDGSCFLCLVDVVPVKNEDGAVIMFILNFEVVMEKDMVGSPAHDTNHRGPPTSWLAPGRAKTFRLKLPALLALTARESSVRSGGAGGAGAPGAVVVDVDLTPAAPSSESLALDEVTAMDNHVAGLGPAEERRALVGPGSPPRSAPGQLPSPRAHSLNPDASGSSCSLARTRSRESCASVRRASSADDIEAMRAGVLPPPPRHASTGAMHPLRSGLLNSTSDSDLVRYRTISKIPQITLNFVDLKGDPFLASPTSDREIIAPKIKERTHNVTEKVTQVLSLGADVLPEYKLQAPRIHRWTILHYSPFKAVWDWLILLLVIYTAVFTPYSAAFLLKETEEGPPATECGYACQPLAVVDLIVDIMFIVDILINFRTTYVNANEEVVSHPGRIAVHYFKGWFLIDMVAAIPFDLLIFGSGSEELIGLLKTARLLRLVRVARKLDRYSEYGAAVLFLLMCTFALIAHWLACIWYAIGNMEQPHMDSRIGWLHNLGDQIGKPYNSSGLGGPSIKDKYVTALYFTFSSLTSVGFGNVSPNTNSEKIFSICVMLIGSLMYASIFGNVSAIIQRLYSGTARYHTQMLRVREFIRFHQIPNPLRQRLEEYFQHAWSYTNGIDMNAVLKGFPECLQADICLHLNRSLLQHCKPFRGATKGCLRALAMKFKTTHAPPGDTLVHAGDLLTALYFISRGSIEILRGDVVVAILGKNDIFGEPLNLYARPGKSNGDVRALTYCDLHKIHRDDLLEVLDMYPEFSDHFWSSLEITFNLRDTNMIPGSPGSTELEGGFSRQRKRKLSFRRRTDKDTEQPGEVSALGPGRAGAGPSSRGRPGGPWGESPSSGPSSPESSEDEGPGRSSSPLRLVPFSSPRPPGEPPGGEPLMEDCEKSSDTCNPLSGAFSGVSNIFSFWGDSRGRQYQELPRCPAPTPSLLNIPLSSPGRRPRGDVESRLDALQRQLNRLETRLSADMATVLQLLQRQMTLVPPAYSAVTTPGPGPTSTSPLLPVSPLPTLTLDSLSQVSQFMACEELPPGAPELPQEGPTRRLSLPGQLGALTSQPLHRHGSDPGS
row,SMILES,"hERG current change (%, negative = inhibition) at 1uM"
1,Cc1nn(CC(=O)N2CCc3ccccc3C2)c(C)c1Cl,0.55%
2,COc1cccc(COC(=O)C2CCN(S(=O)(=O)c3ccc(Cl)cc3)CC2)c1OC,5.7%
3,COc1ccc(S(=O)(=O)Nc2ccc(F)c(Cl)c2)cc1OC,11.8%
4,Cc1ccc(Cn2nnnc2CN2CCC(n3nnc4cc(C)ccc43)CC2)cc1,-22.6%
5,COc1ccc(CC(=O)Nc2ccc(N(C)C)c3ccccc23)cc1,7.73%
6,O=C1/C(=C/c2cccnc2)Sc2ccccc21,9.58%
7,CN(Cc1ccccn1)C(=O)CC1C(=O)NCCN1Cc1cccc(Oc2ccccc2)c1 (stereo not drawn),4.71%
8,CC(C)C(NC(=O)c1c(F)cccc1F)C(=O)NCCc1ccc(S(N)(=O)=O)cc1 (stereo not drawn),9.12%
9,COc1ccc(-c2cc(-c3cccs3)c(C#N)c(SCC(=O)NCc3ccccc3)n2)cc1,14.4%
10,O=C(NC(=S)Nc1ccc2[nH]c(=O)[nH]c2c1)c1ccccc1[N+](=O)[O-],-4.59%
11,COc1ccc(S(=O)(=O)N2CCOC2CNC(=O)C(=O)NCc2ccccc2Cl)cc1 (stereo not drawn),6.01%
12,O=C(CNCc1ccco1)Nc1cc(S(=O)(=O)N2CCOCC2)ccc1N1CCCC1,4.85%
13,CCOc1ccc(N=C2SCCCN2C)cc1.I,8.98%
14,CCN1C(=O)C(=O)N(CC(=O)Nc2ccccc2OC(F)F)C1=O,7.18%
15,Cc1cccc(NC(=O)C2CCCN(S(=O)(=O)c3ccc4[nH]c(=O)ccc4c3)C2)c1 (stereo not drawn),4.13%
16,O=C(NCc1ccncc1)c1cc(C(=O)C2CCCCC2)c[nH]1,3.94%
17,Cc1cc(CNC(=O)Cc2c(F)cccc2Cl)nn1C,2.53%
18,O=C(CNS(=O)(=O)c1ccccc1)NCC(=O)OCc1ccc(C(=O)c2ccccc2)cc1,12.6%
19,O=C(NCc1ccc(F)cc1)C1CCCN(c2nc3ccsc3c(=O)s2)C1 (stereo not drawn),-6.94%
20,O=C(O)c1ccccc1Nc1ccc([N+](=O)[O-])cc1C(=O)O,12.7%
21,Cn1cnnc1SCC(=O)Nc1ccc(N2CCCCC2)cc1,12.1%
22,c1ccc(CN(Cc2cccs2)C(c2cccs2)c2nnnn2C2CCCC2)cc1 (stereo not drawn),5.97%

row,SMILES,"hERG current change (%, negative = inhibition) at 1uM"
1,CCN(CC)c1ccc(CNCCc2ccccc2F)cc1.Cl,5.56%
2,COc1ccccc1-n1c(O)c(/C=N/N2CCCCC2)c(=O)n(-c2ccccc2OC)c1=S,10.8%
3,O=C1NCC(O)=C1C=NCCO,6.39%
4,NC(=O)COc1ccccc1/C=C1/SC(=O)N(CC(=O)N2CCc3ccccc3C2)C1=O,-3.54%
5,CCN(CC)c1ccc(NC(=O)c2ccccc2F)cc1S(=O)(=O)Nc1ccccc1OC,10.3%
6,Cn1c(N)c(-c2ccccc2)c2ccc([N+](=O)[O-])cc2c1=O,14.8%
7,CCOc1ccc(S(=O)(=O)N2CCC(C(=O)NCCc3ccc(S(N)(=O)=O)cc3)CC2)cc1,7.53%
8,Cc1cc(C)c(C#N)c(=N)o1,8.04%
9,O=C(Nc1nc(-c2cccs2)c(C(=O)C(F)(F)F)s1)c1ccco1,22.5%
10,Cc1cc(OCC(=O)NCCCn2ccnc2)c2c(C)c(C)c(=O)oc2c1,-8.82%
11,CCOc1cc(C2NC(=S)NC(C)=C2C(=O)Nc2ccccc2)ccc1O (stereo not drawn),12.3%
12,COC(=O)C1CCN(C(=O)COC(=O)c2cccc(NS(=O)(=O)c3ccccc3)c2)CC1,9.32%
13,CCCc1[nH]nc2c1C(C1CC=CCC1)C(C#N)=C(N)O2 (stereo not drawn),3.02%
14,COc1ccc2c(c1)c1nc3ccccc3nc1n2CCn1c(=O)oc2ccccc21,13.6%
15,CCOC(=O)C1C(c2ccccc2)C(C(=O)OCC)C1c1ccccc1 (stereo not drawn),11.2%
16,Cc1ccc(S(=O)(=O)NC(=O)COc2ccc(Cl)cc2Cl)cc1,19.1%
17,COc1cc(C(=O)Nc2ccc3c(c2)CCCN3C(=O)c2ccco2)c([N+](=O)[O-])cc1OC,-1.57%
18,O=C(N/N=C/c1ccccn1)c1cccs1,10.5%
19,CC(=O)NC(=S)Nc1ccccc1C(=O)Nc1ccccc1,12.7%
20,CCc1ccc(C(=O)N2CCCN(C)CC2)s1,20.6%
21,CC(C)CC1c2[nH]c3ccccc3c2CCN1CCCn1cccn1 (stereo not drawn),-19.2%
22,Cc1ccc2ncnc(-c3ccccc3)c2c1,13.7%

row,SMILES,"hERG current change (%, negative = inhibition) at 1uM"
1,Cc1ccccc1NC(=O)c1sc(Cl)nc1-c1ccccc1,-0.762%
2,O=C(NC1CCCCCCC1)c1ccccc1O,0.219%
3,CCOC(=O)Nc1ccc(NC(=O)OCC)cc1,12.6%
4,Cc1ccc(C)c(NC(=O)C2(C)CC3c4ccccc4C2c2ccccc23)c1 (stereo not drawn),5.14%
5,CC(C)(C)OC(=O)N1CCC[C@H]1C(=O)N/N=C/c1cccc2nccnc12,-5.32%
6,COc1ccc2nc(-c3ccccc3)cc(OC)c2c1,12.6%
7,O=C(c1ccc2ccccc2c1)N1CCN(c2ccc([N+](=O)[O-])c(N3CCOCC3)c2)CC1,-0.245%
8,O=C(NCc1ccccn1)c1ccc2ccccc2n1,8.56%
9,CC(C)c1ccc(NC(=O)CSc2nnc(CN3CCOCC3)n2C)cc1,18.9%
10,NC(=S)N/N=C/c1c(O)ccc2ccccc12,11%
11,CCOc1ccc(N(CC(=O)N2CCCC2)S(=O)(=O)c2c(C)noc2C)cc1,10.2%
12,O=C(CSc1nc(=O)n(CCCN2CCOCC2)c2c1CCC2)Nc1cccc(F)c1,-0.0072%
13,CN(CC(=O)Nc1ccc(F)cc1)C(=O)COC(=O)/C=C/c1ccc(OC(F)F)cc1,-10.2%
14,C=CCN(CC=C)S(=O)(=O)c1ccc(C(=O)Nc2sc3c(c2C(N)=O)CCCCC3)cc1,12.7%
15,CSc1ccc(S(=O)(=O)NCC(=O)OCC(=O)N(Cc2ccccc2)C(C)C)cc1[N+](=O)[O-],0.595%
16,COc1ccc(S(=O)(=O)Nc2cc(C(=O)NCCC(C)C)ccc2N2CCOCC2)cc1,7.3%
17,Cc1ccc(C)c(S(=O)(=O)N2CCN(C(=O)Nc3ccccc3)CC2)c1,6.95%
18,CCN1C(=O)[C@H]2[C@@H](c3ccc(-c4ccc(OC)cc4)c(OC)c3)N[C@@](C)(C(=O)OC)[C@H]2C1=O.O=C(O)C(F)(F)F,11.2%
19,COc1cccc(Nc2ncc(C(=O)O)c3ccccc23)c1,9.2%
20,Cc1nc2cc(F)ccc2n1C1CCN(C(=O)c2ccc(F)cc2F)CC1,-4.37%
21,CN1CCN(C(=O)c2cc(-c3ccccc3)on2)CC1,6.94%
22,CC(/C=C/c1ccco1)=N\NC(=O)C(O)c1ccccc1 (stereo not drawn),5.19%

row,SMILES,"hERG current change (%, negative = inhibition) at 1uM"
1,Fc1ccc(-c2nc(-c3cnccn3)no2)c(Cl)c1,11%
2,Cc1cc(Cl)ccc1OC(C)C(=O)NNC(=O)C1CCCCC1C(=O)O (stereo not drawn),7.09%
3,O=C(Cc1ccc(F)cc1)OCC(=O)c1cc2ccccc2o1,4.28%
4,COc1ccccc1NS(=O)(=O)c1cccc(C(=O)NCc2ccncc2)c1,14.4%
5,CC(C)(C)c1ccc(-c2cnco2)cc1,-20.6%
6,Cc1cc(C)c(C)c(OCC(=O)NCc2nc(-c3ccccc3)no2)c1,9.52%
7,Cc1ccc(C(=O)O/N=C/c2ccc(N(C)C)cc2)cc1,14.7%
8,CCOC(=O)CN1C(=O)C(=O)N(Cc2c(C)cc(C)cc2C)C1=O,8.67%
9,COc1ccc(-c2nnc(SCCOc3cccc(C)c3)n2N)cc1,8.28%
10,COc1ccc2nc(NC(=O)Cc3ccc(OC)c(S(=O)(=O)N4CCOCC4)c3)sc2c1,8.97%
11,Cc1nc2nc(COc3ccccc3)[nH]n2c(=O)c1Cc1ccccc1,-1.2%
12,CCN(CC)c1ccc(C(=O)c2cnc(/N=C/N(C)C)s2)cc1,-1.69%
13,CCOC(=O)N1CCC(N2Cc3cccc(C(=O)Nc4c(C)cccc4CC)c3C2=O)CC1,-15.3%
14,NC(=O)c1ccc(NC(=O)Cc2ccc(S(=O)(=O)N3CCCCC3)cc2)cc1,17.4%
15,O=C(CSc1ncnc2sc(-c3ccccc3)cc12)NC1CCS(=O)(=O)C1 (stereo not drawn),4.77%
16,CCOc1ccccc1N1CC(C(=O)Nc2ccccc2N2CCOCC2)CC1=O (stereo not drawn),15.3%
17,Cc1ccc(S(=O)(=O)N2CCOC2CNC(=O)C(=O)NCc2ccc(Cl)cc2)cc1 (stereo not drawn),10.7%
18,Cc1ccc(SCCC(=O)Nc2cc(C)on2)cc1,12.6%
19,CCOC(=O)COc1ccc(S(=O)(=O)N2CCN(c3ccccc3)CC2)cc1,5.53%
20,Cc1cc(C)n2nc(SCC(=O)N3CCC4(CC3)OCCO4)nc2n1,17.6%
21,COc1ccc(NC(=O)CCCn2c(=O)c3sccc3n(Cc3ccc(C)cc3C)c2=O)cc1,-4.43%
